Measured values as given in publication PMC9310709, “Single Stabilizing Point Mutation Enables High‐Resolution Co‐Crystal Structures of the Adenosine A2A Receptor with Preladenant Conjugates” (Angewandte Chemie (International Ed. in English), 2022).

How the values were obtained:
A2A wt = target: T1, A2A wt (Homo sapiens, UniProt P29274); format: binding
T1 construct: made in house; host or cells: Sf9 insect cells (baculovirus), membranes

A2A-ΔC = target: T2, A2A-ΔC (Homo sapiens, UniProt P29274); format: binding
T2 construct: construct (comprising A2AAR residues 2-316) was cloned into a modified pFastBac1 vector; made in house; host or cells: Sf9 insect cells (baculovirus), membranes

Row | Molecule | Ki (A2A wt; read-out: Ki ± SEM) | Ki (A2A-ΔC; read-out: Ki ± SEM) | Kd (A2A wt; homologous competition vs. [3H]MSX-2, Sf9 membranes, A2A wt, read-out: Kd ± SEM) | Kd (A2A-ΔC; homologous competition vs. [3H]MSX-2, Sf9 membranes, A2A-ΔC, read-out: Kd ± SEM)
1 | CC(C)(C)OC(=O)COCCOCCOCCOCCNC(=O)COc1ccc(N2CCN(CCn3ncc4c3nc(N)n3nc(-c5ccco5)nc43)CC2)cc1 [Compound 4, tert-Butyl 1-(4-(4-(2-(5-amino-2-(furan-2-yl)-7H-pyrazolo[4,3-e][1,2,4]triazolo[1,5-c]pyrimidin-7-yl)ethyl)piperazin-1-yl)phenoxy)-2-oxo-6,9,12,15-tetraoxa-3-azaheptadecan-17-oate] | 6.3 nM | 12.7 ± 3.3 nM |  | 
2 | MSX-2 [reference compound] |  |  | 13.3 ± 0.756 nM | 17.7 ± 2.02 nM
